From PubChem BioAssay AID588382 (National Center for Advancing Translational Sciences (NCATS), 2011)
Hit rate of the full screen: of about 1,300 compounds, about 150 (12%) were called active. Inconclusive results, whose numbers are uncertain, are shown with a selection of clear calls. Calls follow the shape of the dose curve; as a rule, active = well fitted cell-killing curve with a large enough effect; inconclusive = small, poorly fitted or top-dose-only effect, or effect the other way; inactive = flat fitted curve, though single readings scatter. A potency beside an inconclusive call is a rough fit, not a confirmed value.

experiment: qHTS of small molecules that selectively kill Giardia lamblia: Hit Validation in HepG2 cytotox; conditions: cell viability; Potency: HepG2 cytotoxicity; series mostly up to 38.3 µM;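 also: compound exposure lasted overnight at 37 deg C; nearly all actives have a fitted effect of over 55% in size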
Procedure, shortened: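 HepG2 cells seeded and incubated overnight at 37 deg C, then 23 nL compound added by pintool and incubated overnight at 37 deg C. Viability read as ATP luminescence with ATPLite after 15 min at room temperature.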
Potency is read from the fitted curve at half-maximal effect; tags tell the direction and shape of the fitted curve.

| Structure (SMILES) | Potency |
| --- | --- |
| O=C(NC1CCCC(C(F)(F)F)C1)c1ccc([N+](=O)[O-])o1 (stereo unspecified) | inconclusive: 23.3 µM [cytotoxic, single point] |
| Cc1c(Br)c([N+](=O)[O-])nn1C(C)C(=O)Nc1ccc2c(c1)OCO2 (stereo unspecified) | inactive |
| O=C1c2cc([N+](=O)[O-])cc3cc([N+](=O)[O-])cc(c23)C(=O)N1c1ccccn1 | inconclusive: 18.5 µM [cytotoxic, partial curve] |
| O=C1CCCN1CCCN=c1c([N+](=O)[O-])nn(-c2ccc(Cl)cc2)n1O | inconclusive: 26.1 µM [cytotoxic, single point] |
| COc1cccc(CN=c2c([N+](=O)[O-])nn(-c3ccccc3C)n2O)c1 | inactive |
| CC(=O)NC(Cc1ccccc1)C(=O)NC1CCN(c2ncccc2[N+](=O)[O-])CC1 (stereo unspecified) | inconclusive: 8.26 µM [rising, partial curve, poor fit] |
| COc1ccccc1NC(=O)C(=O)N/N=C/c1ccc([N+](=O)[O-])s1 | inactive |
| Cc1csc(NC(=O)c2cn3ccccc3n2)n1 | inconclusive: 11.7 µM [cytotoxic, partial curve] |
| c1ccc2nc3c(cc2c1)CCCC3 | inconclusive: 14.7 µM [cytotoxic, partial curve, poor fit] |
| O=[N+]([O-])c1cccc(/C=C/c2nc[nH]c2[N+](=O)[O-])c1 | inconclusive: 2.33 µM [cytotoxic, partial curve, poor fit] |
| O=C(/C=C/c1cccnc1)/C=C/c1cccnc1 | active: 3.69 µM |
| O=[N+]([O-])c1nn(-c2ccc3c(c2)OCCO3)n(O)c1=NCc1ccc(F)cc1 | inactive |
| O=C(CCS(=O)(=O)Cc1ccccc1)Nc1ncc([N+](=O)[O-])s1 | inconclusive: 16.5 µM [cytotoxic, partial curve, poor fit] |
| CCc1ccccc1NC(=O)CSc1ccsc1[N+](=O)[O-] | inconclusive: 3.69 µM [rising, full curve] |
| O=[N+]([O-])c1ccc(CN2CCN(c3ccccc3)CC2)o1 | inconclusive: 14.7 µM [rising, partial curve, poor fit] |
| N#C/C(=C(/O)c1ccc([N+](=O)[O-])o1)c1nc2ccccc2[nH]1 | active: 3.69 µM |
| CC12CCC(C(=O)Nc3ncc([N+](=O)[O-])s3)(OC1=O)C2(C)C (stereo unspecified) | inactive |
| COc1ccc(-n2nc([N+](=O)[O-])c(=NCCc3ccc(Cl)cc3)n2O)cc1 | inactive |
| COc1ccc(NS(=O)(=O)c2cc(NC(=O)c3ccc(=O)[nH]c3)ccc2C)cc1 | inconclusive: 14.7 µM [cytotoxic, single point] |
| CCC12CN3CC(CC)(CN(C1)C3c1ccc([N+](=O)[O-])o1)C2=O (stereo unspecified) | inconclusive: 26.1 µM [rising, partial curve, poor fit] |
| COc1ccc(CC(NC(C)=O)C(=O)NC2CCN(c3ncccc3[N+](=O)[O-])CC2)cc1 (stereo unspecified) | inactive |
| Cc1ncc([N+](=O)[O-])n1CC(O)CCl (stereo unspecified) | inconclusive: 14.7 µM [rising, partial curve, poor fit] |
| O=C(OCc1nc2ccccc2[n+]([O-])c1C(=O)c1ccccc1)c1ccco1 | inconclusive: 1.47 µM [rising, partial curve, poor fit] |

| Structure (SMILES) | Potency |
| --- | --- |
| O=C(COc1cccnc1[N+](=O)[O-])NCc1ccc(F)cc1 | inactive |
| CC(=O)c1c(COC(=O)c2ccccc2Cl)nc2ccccc2[n+]1[O-] | inactive |
| Cc1ccc(-c2nc3ncccc3o2)cc1NC(=O)c1ccc([N+](=O)[O-])o1 | inconclusive: 14.7 µM [cytotoxic, single point] |
| O=[N+]([O-])c1ccc(Oc2cccc(Br)c2)c2ccncc12 | inactive |
| COc1cc2sc3cc(NCCCN4CCOCC4)ccc3c(=O)c2cc1OC | inconclusive: 23.3 µM [cytotoxic, single point] |
| Cc1ncc([N+](=O)[O-])n1CCOC(=O)c1ccc(Br)cc1 | inconclusive: 6.56 µM [rising, partial curve, poor fit] |
| C[n+]1ccnc2ccccc21 | inconclusive: 6.56 µM [cytotoxic, partial curve] |
| O=c1c([N+](=O)[O-])cccn1Cc1ccccc1Cl | inactive |
| CN(C)CCCN(C(=O)c1cc2cc([N+](=O)[O-])ccc2s1)c1nc2cc3c(cc2s1)OCCO3 | inconclusive: 8.26 µM [cytotoxic, partial curve] |
| CCOc1cc([N+](=O)[O-])cc(/C=C2/NC(=O)N(Cc3ccccc3F)C2=O)c1O | inactive |
| Cn1c([N+](=O)[O-])cnc1N1CCN(c2nncs2)C1=O | inactive |
| Cc1ccc(OCC(=O)c2cc(C)n(-c3ccccc3)c2C)c([N+](=O)[O-])n1 | inactive |
| CN(C)c1ccc(/C=C(/NC(=O)c2ccccc2)C(=O)N/N=C/c2ccc([N+](=O)[O-])c(O)c2)cc1 | inactive |
| CC(NC(=O)c1ccc([N+](=O)[O-])o1)C1CC2CCC1C2 (stereo unspecified) | inconclusive: 7.36 µM [cytotoxic, single point] |
| Nc1nc(Cl)nc2c1ncn2C1CC(O)C(CO)O1 (stereo unspecified) | inconclusive: 10.4 µM [cytotoxic, single point] |
| Cn1nc(N)c2c(-c3ccccc3)c(C#N)c(N)nc21 | inactive |
| CN(C)c1ccc(/C=C/c2ccc3cc(N)ccc3n2)cc1 | inconclusive: 2.07 µM [cytotoxic, full curve] |
| O=C(CSc1cccc[n+]1[O-])Nc1cc2c(cc1Cl)C(=O)c1ccccc1C2=O | inactive |
| COCCNc1cc(NCCOC)c([N+](=O)[O-])cc1[N+](=O)[O-] | inactive |
| N/C(=N/OC(=O)c1ccccc1Cl)c1ncc([N+](=O)[O-])s1 | inconclusive: 14.7 µM [cytotoxic, single point] |
| CCOC(=O)N/N=C\c1ccc([N+](=O)[O-])o1 | inactive |
| O=C(Nc1ccc2c(c1)OCCO2)c1ccc(Br)o1 | inconclusive: 18.5 µM [cytotoxic, single point] |
| O=C(Nc1nc2c(F)cc(F)cc2s1)c1ccc([N+](=O)[O-])o1 | inconclusive: 23.3 µM [cytotoxic, single point] |
